The shares of active, inactive and inconclusive entries below differ from those in the screen. No potency is given beside an inconclusive call; the fits are too rough. Calls of active or inactive are those of the source. The call rests on the fitted dose curve; in most records, active means well fitted inhibition curve with a large enough effect; inconclusive means small, poorly fitted or top-dose-only effect; inactive means no such curve, though single readings can be large or run the other way.
What was measured:
[1] = biological target: Rap guanine nucleotide exchange factor 3 (Homo sapiens) (UniProt O95398); assay: Confirmatory qHTS for antagonist of cAMP-regulated guanine nucleotide exchange factor 3 (EPAC1) (AID 1645880); conditions: EPAC1 Rap1B-BODIPY-GDP exchange, fluorescence; series mostly up to 115 µM; further: nearly all actives have a fitted effect of over 55% in size
UniProt O95398, sequence (O95398 whole entry, looked up): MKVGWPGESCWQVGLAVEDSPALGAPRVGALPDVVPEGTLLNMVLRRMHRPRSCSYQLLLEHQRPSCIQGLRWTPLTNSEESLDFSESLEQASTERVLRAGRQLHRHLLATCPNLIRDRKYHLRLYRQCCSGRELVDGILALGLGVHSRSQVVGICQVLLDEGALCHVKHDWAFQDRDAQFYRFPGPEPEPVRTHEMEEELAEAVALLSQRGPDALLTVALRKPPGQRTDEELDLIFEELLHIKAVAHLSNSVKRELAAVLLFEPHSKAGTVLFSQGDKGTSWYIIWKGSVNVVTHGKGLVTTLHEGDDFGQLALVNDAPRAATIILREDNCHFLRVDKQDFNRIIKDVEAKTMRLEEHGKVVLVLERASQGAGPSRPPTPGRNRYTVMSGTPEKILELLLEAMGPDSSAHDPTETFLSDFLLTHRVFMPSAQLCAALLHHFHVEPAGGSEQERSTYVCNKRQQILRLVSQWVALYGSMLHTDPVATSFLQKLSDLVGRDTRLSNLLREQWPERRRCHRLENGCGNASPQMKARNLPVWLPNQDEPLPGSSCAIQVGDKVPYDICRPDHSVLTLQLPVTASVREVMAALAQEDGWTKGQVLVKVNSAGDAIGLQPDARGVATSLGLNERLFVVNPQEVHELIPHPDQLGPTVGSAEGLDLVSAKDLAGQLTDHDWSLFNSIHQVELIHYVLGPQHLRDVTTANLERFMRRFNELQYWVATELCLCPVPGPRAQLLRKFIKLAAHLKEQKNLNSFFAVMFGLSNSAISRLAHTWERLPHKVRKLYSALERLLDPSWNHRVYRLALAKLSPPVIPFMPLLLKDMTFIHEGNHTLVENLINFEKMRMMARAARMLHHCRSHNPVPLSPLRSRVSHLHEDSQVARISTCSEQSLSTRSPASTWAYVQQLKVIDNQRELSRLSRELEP
Summary of the method: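 Nucleotide exchange uses 100 nM EPAC1, 250 nM RAP1B-BODIPY-GDP and 50 uM GDP, with compounds in a concentration-titration series. After 5 min at room temperature, fluorescence (480 nm ex/540 nm em) is read every 5 min for 30 min. Data are normalized to control ATA and DMSO.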

[2] = biological target: Rap guanine nucleotide exchange factor 4 (Homo sapiens) (UniProt Q8WZA2); assay: Confirmatory qHTS for antagonist of cAMP-regulated guanine nucleotide exchange factor 4 (EPAC2) (AID 1645885); conditions: activity change, negative = inhibition: at 12.7 µM (top of the series) unless noted; further: nearly all actives have a fitted effect of over 25% in size
UniProt Q8WZA2, sequence (Q8WZA2 whole entry, looked up): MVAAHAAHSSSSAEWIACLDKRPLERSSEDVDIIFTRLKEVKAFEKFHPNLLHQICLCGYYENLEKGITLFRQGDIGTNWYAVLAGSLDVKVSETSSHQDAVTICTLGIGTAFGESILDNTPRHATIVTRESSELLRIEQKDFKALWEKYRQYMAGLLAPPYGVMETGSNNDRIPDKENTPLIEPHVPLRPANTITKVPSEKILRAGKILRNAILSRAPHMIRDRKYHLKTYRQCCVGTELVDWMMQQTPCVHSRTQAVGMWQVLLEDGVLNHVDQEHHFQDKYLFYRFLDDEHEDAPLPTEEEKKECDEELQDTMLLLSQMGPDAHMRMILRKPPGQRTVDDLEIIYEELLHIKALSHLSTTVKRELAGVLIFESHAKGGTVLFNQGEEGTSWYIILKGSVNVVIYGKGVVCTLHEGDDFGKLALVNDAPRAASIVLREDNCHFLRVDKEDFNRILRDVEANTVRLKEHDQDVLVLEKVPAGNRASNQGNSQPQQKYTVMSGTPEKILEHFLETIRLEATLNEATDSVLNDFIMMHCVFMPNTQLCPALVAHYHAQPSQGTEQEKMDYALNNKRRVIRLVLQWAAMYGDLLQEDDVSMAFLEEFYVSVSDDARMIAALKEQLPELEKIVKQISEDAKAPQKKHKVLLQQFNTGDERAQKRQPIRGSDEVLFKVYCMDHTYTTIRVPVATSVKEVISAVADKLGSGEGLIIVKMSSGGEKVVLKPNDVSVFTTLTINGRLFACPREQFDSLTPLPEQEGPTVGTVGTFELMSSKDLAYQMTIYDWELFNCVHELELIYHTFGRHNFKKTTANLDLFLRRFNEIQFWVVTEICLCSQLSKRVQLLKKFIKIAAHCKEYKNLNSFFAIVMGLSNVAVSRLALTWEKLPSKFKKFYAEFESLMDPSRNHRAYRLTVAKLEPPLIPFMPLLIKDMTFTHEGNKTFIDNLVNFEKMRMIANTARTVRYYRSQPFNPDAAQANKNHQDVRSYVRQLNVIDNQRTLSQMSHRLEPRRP
Potency means the concentration at half of the fitted maximal effect; tags describe the fitted curve by direction and shape.

SMILES | Potency [1] | Potency [2] | outcome [2]
CCCN(CC1CC1)c1cc2c(c3c1ccn3C)C1CCC2C1 (configuration not stated) | inactive | inconclusive [inhibitor, partial curve] | 
Cc1ccc(S(=O)(=O)N2CCOCC2)cc1NC(=O)COC(=O)CCOc1ccc(C(C)(C)C)cc1 | inconclusive [inhibitor, partial curve] | inconclusive [inhibitor, full curve, poor fit] | 
Cc1ccc2nc(N3C(=O)C(O)=C(C(=O)c4ccc(C)o4)C3c3ccc(O)cc3)sc2c1 (configuration not stated) | active: 37.9 µM | inconclusive [inhibitor, partial curve, poor fit] | 
COc1ccc(SC[C@H](C)CN2CC[C@H](C(C)(C)C)CCC2=O)cc1 | inconclusive [inhibitor, partial curve] | active: 35 µM | 
O=C(O)CCSc1nnc(COc2cccc3ccccc23)n1-c1cccc(Cl)c1 | inactive | inconclusive [inhibitor, partial curve] | 
Cc1ccc(C)c(S(=O)(=O)Nc2ccc(C(=O)NCC(c3ccco3)N(C)C)cc2)c1 (configuration not stated) | inactive | inactive | 
NC(CSC(c1ccccc1)(c1ccccc1)c1cccc2ccccc12)C(=O)O (configuration not stated) | inconclusive [inhibitor, partial curve] | inactive | 
Cc1ccccc1Cn1nnc2c(=O)[nH]c(C3CCCN(C(=O)c4ccc(C(C)(C)C)cc4)C3)nc21 (configuration not stated) | inconclusive [inhibitor, partial curve, poor fit] | inactive | 
O=S1(=O)[C@H]2CC3O[C@]2(C[C@@H]3c2ccc(F)cc2)CN1Cc1ccc(Cl)cc1 | inactive | inconclusive [inhibitor, full curve, poor fit] | 
Cc1ccc(C)c(Cn2cnc3ccccc3c2=O)c1 | inactive | inconclusive [inhibitor, single point] | 
CC(=O)NC(c1ccc(Cl)cc1Cl)c1ccc2cccnc2c1O (configuration not stated) | inconclusive [inhibitor, partial curve, poor fit] | inconclusive [inhibitor, full curve] | 
Cn1c(SCC(=O)Nc2ccc(C(=O)O)cc2)nc2scc(-c3ccccc3Cl)c2c1=O | inconclusive [inhibitor, partial curve] | active: 42.6 µM | 
CCCCN(CCCC)C1=Nc2ccccc2N/C1=C(/C#N)C(=O)OCC | inconclusive [inhibitor, partial curve, poor fit] | inconclusive [inhibitor, partial curve, poor fit] | 
O=C(O)c1[nH]c2ccccc2c1C(c1cccc(O)c1)c1c(C(=O)O)[nH]c2ccccc12 | inconclusive [inhibitor, partial curve] | inconclusive [inhibitor, single point] | 
CCOC(=O)c1c(CC(C)C)csc1NC(=O)COC(=O)c1ccc(O)cc1 | inconclusive [inhibitor, partial curve] | inconclusive [inhibitor, partial curve, poor fit] | 
NS(=O)(=O)c1cccc(Nc2nc3ccccc3nc2NS(=O)(=O)c2ccc(Cl)cc2)c1 | active: 75.7 µM | inconclusive [inhibitor, partial curve] | 
CCCC(=O)NC(c1ccc(C)cc1)c1ccc2cccnc2c1O (configuration not stated) | inconclusive [inhibitor, full curve, poor fit] | inactive | 
CCCCn1c(=O)[nH]c(=O)c2c1nc(-c1ccccc1F)n2Cc1ccccc1OC | inconclusive [inhibitor, partial curve, poor fit] | inconclusive [inhibitor, partial curve, poor fit] | 
CCC(=O)OC1CCC2C3CCc4cc(O)ccc4C3CC[C@]12C (some centres not stated) | inconclusive [inhibitor, partial curve] | active: 49.4 µM | 
CS/C(Nc1cc(Cl)ccc1Cl)=C(/C#N)C(=O)c1ccco1 | active: 67.5 µM | inconclusive [inhibitor, partial curve] | 
Cc1cccc(NC(=O)C2CCCN(S(=O)(=O)c3ccc4c(c3)oc(=O)n4C)C2)c1 (configuration not stated) | inactive | inactive | 
CN(C)c1cc(Cl)c2nonc2c1N | inconclusive [inhibitor, full curve] | inconclusive [inhibitor, partial curve, poor fit] | 
COc1ccc(-c2ccc(C(=O)NCC3CC3)c3occc23)c(C)c1 | inconclusive [inhibitor, partial curve, poor fit] | inconclusive [inhibitor, partial curve] | 

SMILES | Potency [1] | Potency [2] | outcome [2]
COc1ccc(NC(=O)c2cccnc2NCCc2ccccc2)cc1 | inconclusive [inhibitor, partial curve, poor fit] | inconclusive [inhibitor, partial curve, poor fit] | 
CC(C)(C)c1cc(-c2csc(Nc3ccccc3)[n+]2Cc2ccc(C(=O)O)cc2)cc(C(C)(C)C)c1O | active: 67.5 µM | active: 84.9 µM | 
O=C(Nc1ccccc1C(=O)Nc1nnc(C(F)(F)F)s1)c1ccccc1Cl | inconclusive [inhibitor, full curve] | inconclusive [inhibitor, single point] | 
Cc1c(C(=O)OCC(C)C)[nH]c2c1C(=O)CC(c1ccco1)C2 (configuration not stated) | inconclusive [inhibitor, partial curve] | inactive | 
CCOC(=O)C1=C(N)Oc2ccc3ccccc3c2C1c1ccc(O)cc1 (configuration not stated) | inconclusive [inhibitor, single point] | inconclusive [inhibitor, partial curve] | 
CCC(=O)N1N=C(c2ccc(Cl)cc2)CC1c1ccco1 (configuration not stated) | inactive | inconclusive [inhibitor, partial curve, poor fit] | 
Cc1ccc([C@H]2C(C(=O)O)=CC[C@@H](c3ccc(C(C)C)cc3)N2S(=O)(=O)c2ccc(C)cc2)cc1 | active: 75.7 µM | inconclusive [inhibitor, full curve] | 
CC1=C(C(=O)OCc2ccccc2)C(c2ccc(Cl)cc2Cl)NC(=O)N1CCCCCC(=O)O (configuration not stated) | active: 75.7 µM | inconclusive [inhibitor, single point] | 
COc1ccc(OC)c(NC(=O)C2(C)CCN2Cc2ccsc2)c1 (configuration not stated) | inactive | inconclusive [inhibitor, partial curve, poor fit] | 
Cc1onc(-c2ccccc2)c1C(=O)N1CCc2ccccc21 | inactive | inconclusive [inhibitor, partial curve, poor fit] | 
Cc1ccc(C)c(-c2csc(N)c2C(=O)OC(C)C)c1 | inconclusive [inhibitor, partial curve] | inconclusive [inhibitor, partial curve, poor fit] | 
COC(=O)c1cc(C(=O)OC)n(Cc2ccc(F)cc2)c1C | inactive | inconclusive [inhibitor, full curve] | 
O=C(CCCN1C(=O)/C(=C/c2ccccc2)SC1=S)Nc1ccccc1O | inactive | inconclusive [inhibitor, single point] | 
Cc1ccc(SCCSc2ncccn2)cc1 | inactive | inconclusive [inhibitor, partial curve] | 
CCCN(CCC)Cc1cc(=O)oc2cc(OC)ccc12 | inconclusive [inhibitor, partial curve, poor fit] | inconclusive [inhibitor, partial curve, poor fit] | 
O=C1CCc2cc(S(=O)(=O)NCc3ccc(F)cc3)cc3c2N1CC3 | inactive | inconclusive [inhibitor, full curve, poor fit] | 
CCC(C)(C)c1ccc(OCC(=O)N(C)C)c(C(C)(C)CC)c1 | inconclusive [inhibitor, partial curve] | active: 67.5 µM | 
CCOC(=O)C(C(C)C)C(N)Cc1ccc(F)cc1 (configuration not stated) | inconclusive [inhibitor, single point] | inactive | 
CCOC(=O)C1=C(N)OC2=C(C(=O)CCC2)C1c1sccc1C (configuration not stated) | inconclusive [inhibitor, partial curve, poor fit] | inactive | 
CCOC(=O)c1[nH]c2ccc(OCC)cc2c1NC(=O)CN1CCN(c2ccccn2)CC1 | inactive | inconclusive [inhibitor, partial curve, poor fit] | 
O=C(O)CSc1nnc(COc2cccc3ccccc23)n1Cc1ccccc1 | inconclusive [inhibitor, partial curve] | inconclusive [inhibitor, partial curve, poor fit] | 
COc1cccc(C(NC(C)=O)c2ccc3cccnc3c2O)c1 (configuration not stated) | inconclusive [inhibitor, partial curve, poor fit] | active: 19 µM | 
O=C(CSc1nc(-c2cccs2)nc2cc(=O)[nH]n12)Nc1cccc(C(F)(F)F)c1 | inconclusive [inhibitor, single point] |  | inactive [at 12.7 µM]
